Laboratory results taken from publication PMC10518940.

Target: T1, HA-LPA1-Rluc8 (human), Q92633
T1 chain: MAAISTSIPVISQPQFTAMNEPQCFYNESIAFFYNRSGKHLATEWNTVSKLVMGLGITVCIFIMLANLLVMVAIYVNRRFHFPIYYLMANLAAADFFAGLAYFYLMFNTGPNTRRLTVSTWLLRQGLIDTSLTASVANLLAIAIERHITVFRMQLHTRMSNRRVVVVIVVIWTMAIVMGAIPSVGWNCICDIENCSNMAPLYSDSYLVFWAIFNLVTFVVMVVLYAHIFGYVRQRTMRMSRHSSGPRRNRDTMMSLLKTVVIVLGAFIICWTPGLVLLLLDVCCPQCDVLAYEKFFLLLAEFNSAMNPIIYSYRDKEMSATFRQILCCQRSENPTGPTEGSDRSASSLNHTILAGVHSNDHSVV
Experiment: FRET or BRET; BRET2 saturation in HEK293A cells: fixed amount of GPCR-Rluc8 plasmid, increasing amounts of GPCR-GFP2 plasmid (0 to 390 ng); coelenterazine 400a 5 μM; BRET50 from the net BRET ratio
Settings: remark: other sources report otherwise

B1: Flag-LPA1-GFP2, Q92633 1-364 (receptor)
chain: MAAISTSIPVISQPQFTAMNEPQCFYNESIAFFYNRSGKHLATEWNTVSKLVMGLGITVCIFIMLANLLVMVAIYVNRRFHFPIYYLMANLAAADFFAGLAYFYLMFNTGPNTRRLTVSTWLLRQGLIDTSLTASVANLLAIAIERHITVFRMQLHTRMSNRRVVVVIVVIWTMAIVMGAIPSVGWNCICDIENCSNMAPLYSDSYLVFWAIFNLVTFVVMVVLYAHIFGYVRQRTMRMSRHSSGPRRNRDTMMSLLKTVVIVLGAFIICWTPGLVLLLLDVCCPQCDVLAYEKFFLLLAEFNSAMNPIIYSYRDKEMSATFRQILCCQRSENPTGPTEGSDRSASSLNHTILAGVHSNDHSVV
B1 gave a BRET50 of 0.629.
